The other results are listed elsewhere or left out.

First the molecules themselves.
B1: PhoQ; a variant is named by its letters at X, in order, P23837 (parent)
chain: MKKLLRLFFPLSLRVRFLLATAAVVLVLSLAYGMVALIGYSVSFDKTTFRLLRGESNLFYTLAKWENNKLHVELPENIDKQSPTMTLIYDENGQLLWAQRDVPWLMKMIQPDWLKSNGFHEIEADVNDTSLLLSGDHSIQQQLQEVREDDDDAEMTHSVAVNVYPATSRMPKLTIVVVDTIPVELKSSYMVWSWFIYVLSANLLLVIPLLWVAAWWSLRPIEALAKEVRELEEHNRELLNPATTRELTSLVRNLNRLLKSERERYDKYRTTLTDLTHSLKTPLXXLQXXLRSLRSEKMSVSDAEPVMLEQISRISQQIGYYLHRASMRGGTLLSRELHPVAPLLDNLTSALNKVYQRKGVNISLDISPEISFVGEQNDFVEVMGNVLDNACKYCLEFVEISARQTDEHLYIVVEDDGPGIPLSKREVIFDRGQRVDTLRPGQGVGLAVAREITEQYEGKIVAGESMLGGARMEVIFGRQHSAPKDE

The variants in this assay derive from B1. Kind of assay: enrichment ratio after two sorts for PhoP signalling (ratio (wild type AVST 3.29)); higher = more functional. The conditions noted are these: with PhoP (E. coli).
Consider SSTS, for which the enrichment ratio came to 10.2.

Regarding WWAI, the enrichment ratio was not above 0.25.

MLIW: the enrichment ratio is not above 0.25.

AHLG: the enrichment ratio was found to be 6.95.

Regarding WWQM, the enrichment ratio was not above 0.25.

For THSI, the enrichment ratio was 5.98.

With ARPS, the enrichment ratio is not above 0.25.

Regarding FYGN, the enrichment ratio is not above 0.25.

Regarding LECW, the enrichment ratio was not above 0.25.

Take NFNN: the enrichment ratio was not above 0.25.

With MARK, the enrichment ratio was not above 0.25.

For QIAY, the enrichment ratio was not above 0.25.

For the variant PIMM, the enrichment ratio is not above 0.25.

On to TQAV, for which the enrichment ratio was found to be 7.36.

As for EHLS, the enrichment ratio is not above 0.25.

Turning to SMAR, the enrichment ratio was determined as 3.77.

On to PTES, for which the enrichment ratio was not above 0.25.

For the variant EMTH, the enrichment ratio was not above 0.25.

Regarding MNRY, the enrichment ratio was not above 0.25.

LSQG: the enrichment ratio is not above 0.25.

For the variant PEGF, the enrichment ratio was not above 0.25.

For AWCG, the enrichment ratio is not above 0.25.

Take VYQL: the enrichment ratio is not above 0.25.

Take CYLL: the enrichment ratio is not above 0.25.

Consider TQSV, for which the enrichment ratio stood at 20.7.

Turning to RHYS, the enrichment ratio is not above 0.25.

Consider TWGK, for which the enrichment ratio was not above 0.25.

In the case of YAKM, the enrichment ratio is not above 0.25.

Regarding EYNA, the enrichment ratio was not above 0.25.

On to QDCH, for which the enrichment ratio is not above 0.25.

On to SCGY, for which the enrichment ratio came to 8.61.

In the case of WQHS, the enrichment ratio is not above 0.25.

As for RLCS, the enrichment ratio was not above 0.25.

On to PEGD, for which the enrichment ratio was not above 0.25.

With WIKC, the enrichment ratio is not above 0.25.

As to FDNH, the enrichment ratio is not above 0.25.

As for NYRG, the enrichment ratio is not above 0.25.

Take KNHM: the enrichment ratio is not above 0.25.

As for FSHF, the enrichment ratio was not above 0.25.

PSKR: the enrichment ratio is not above 0.25.

Regarding GNLT, the enrichment ratio was 16.5.

With QFVV, the enrichment ratio is not above 0.25.

Consider GTSE, for which the enrichment ratio is not above 0.25.

For the variant PGHI, the enrichment ratio is not above 0.25.

Consider TISL, for which the enrichment ratio stood at 19.4.

In the case of TLRY, the enrichment ratio is not above 0.25.

FCCM: the enrichment ratio was not above 0.25.

Take FADY: the enrichment ratio is not above 0.25.

As to HLYR, the enrichment ratio was not above 0.25.

Turning to LWES, the enrichment ratio was not above 0.25.

In the case of NWTS, the enrichment ratio was not above 0.25.

LMCL: the enrichment ratio is not above 0.25.

As to VQPQ, the enrichment ratio was not above 0.25.

Consider RGLQ, for which the enrichment ratio is not above 0.25.

Take DQPQ: the enrichment ratio is not above 0.25.

In the case of AGHW, the enrichment ratio is not above 0.25.

VDCG: the enrichment ratio is not above 0.25.

As to QRAF, the enrichment ratio was not above 0.25.

DNQI: the enrichment ratio is 22.9.

Consider LNNG, for which the enrichment ratio was not above 0.25.

As for QYAS, the enrichment ratio is not above 0.25.

For the variant DFFH, the enrichment ratio was not above 0.25.

Consider IACA, for which the enrichment ratio was not above 0.25.

For NHKH, the enrichment ratio was not above 0.25.

As for PVDG, the enrichment ratio was not above 0.25.

With KRCY, the enrichment ratio was 0.665.

In the case of MWDL, the enrichment ratio is not above 0.25.

As to DEDK, the enrichment ratio is not above 0.25.

For the variant RNCT, the enrichment ratio was not above 0.25.

Turning to LSYM, the enrichment ratio was 7.26.

Consider AYYD, for which the enrichment ratio was not above 0.25.

Take SHVH: the enrichment ratio amounted to 4.7.

Turning to GEIQ, the enrichment ratio was not above 0.25.

For the variant IKDH, the enrichment ratio was not above 0.25.

With TFLR, the enrichment ratio was found to be 0.372.

Consider DFPL, for which the enrichment ratio is not above 0.25.

Take WEQL: the enrichment ratio was not above 0.25.

As to QMML, the enrichment ratio was not above 0.25.

For TFWH, the enrichment ratio was not above 0.25.

In the case of TAAS, the enrichment ratio came out at 10.8.

For the variant SCEW, the enrichment ratio was not above 0.25.

With KYRA, the enrichment ratio is not above 0.25.

Take DNMR: the enrichment ratio was not above 0.25.

Take CIVQ: the enrichment ratio was not above 0.25.

On to NERA, for which the enrichment ratio was not above 0.25.

Take DECM: the enrichment ratio was not above 0.25.

YCKA: the enrichment ratio was not above 0.25.

With LLRY, the enrichment ratio is not above 0.25.

Take RNWM: the enrichment ratio was not above 0.25.

Take IVSQ: the enrichment ratio was not above 0.25.

With YWTA, the enrichment ratio was not above 0.25.

In the case of WPPY, the enrichment ratio is not above 0.25.

Consider EGSH, for which the enrichment ratio was not above 0.25.

Turning to TQKR, the enrichment ratio is not above 0.25.

As to YEVG, the enrichment ratio is not above 0.25.

Turning to EILD, the enrichment ratio is not above 0.25.

For CAYT, the enrichment ratio is not above 0.25.

Take NMMY: the enrichment ratio was not above 0.25.

As to EFAI, the enrichment ratio was not above 0.25.

For YAAQ, the enrichment ratio is not above 0.25.

With YYVK, the enrichment ratio was not above 0.25.

MQPR: the enrichment ratio is not above 0.25.

Regarding FEHS, the enrichment ratio was not above 0.25.

Consider PWVN, for which the enrichment ratio is not above 0.25.

For the variant LYPP, the enrichment ratio was not above 0.25.

PLVQ: the enrichment ratio was not above 0.25.

As to LMAH, the enrichment ratio was not above 0.25.

As for IGVM, the enrichment ratio is not above 0.25.

Turning to IIIF, the enrichment ratio is not above 0.25.

As to EEKF, the enrichment ratio was not above 0.25.

In the case of VEHP, the enrichment ratio was not above 0.25.

For the variant RNTW, the enrichment ratio was not above 0.25.

Take TDVF: the enrichment ratio was 0.978.

Regarding MRPT, the enrichment ratio is not above 0.25.

In the case of PCRR, the enrichment ratio was not above 0.25.

In the case of SRAK, the enrichment ratio was not above 0.25.

For WSIQ, the enrichment ratio is not above 0.25.

Take YWQP: the enrichment ratio is not above 0.25.

As for LIRA, the enrichment ratio is not above 0.25.

Turning to MGIP, the enrichment ratio was not above 0.25.

For the variant GCGY, the enrichment ratio was not above 0.25.

As to VQRC, the enrichment ratio was not above 0.25.

Turning to MRFV, the enrichment ratio was not above 0.25.

Regarding TLVY, the enrichment ratio is not above 0.25.

As to LWAC, the enrichment ratio was not above 0.25.

For QRTV, the enrichment ratio was not above 0.25.

On to IYRW, for which the enrichment ratio was not above 0.25.

Turning to REEL, the enrichment ratio is not above 0.25.

As to MKVR, the enrichment ratio was not above 0.25.

For TFHM, the enrichment ratio is not above 0.25.

On to WYKE, for which the enrichment ratio was not above 0.25.

Take TMLQ: the enrichment ratio was determined as 12.2.

Regarding GPHW, the enrichment ratio is not above 0.25.

On to SCYI, for which the enrichment ratio was determined as 0.295.

As to AWSS, the enrichment ratio was not above 0.25.

Turning to YCYT, the enrichment ratio is not above 0.25.

With PMDD, the enrichment ratio is not above 0.25.

For the variant EYKS, the enrichment ratio was not above 0.25.

With RLDW, the enrichment ratio was not above 0.25.

Turning to GMMV, the enrichment ratio was not above 0.25.

With KVVD, the enrichment ratio is not above 0.25.

Turning to PWYG, the enrichment ratio is not above 0.25.

With HPMN, the enrichment ratio was not above 0.25.

Turning to GTGI, the enrichment ratio is not above 0.25.

Take TWAR: the enrichment ratio is not above 0.25.

As for LSGQ, the enrichment ratio is not above 0.25.

For YCMN, the enrichment ratio is not above 0.25.

Regarding VYGI, the enrichment ratio is not above 0.25.

On to HQSY, for which the enrichment ratio was not above 0.25.

For DRIH, the enrichment ratio is not above 0.25.

Turning to RYHS, the enrichment ratio is not above 0.25.

With PLIC, the enrichment ratio was not above 0.25.

In the case of PRRI, the enrichment ratio is not above 0.25.

The values above are taken from a collection of fitness landscapes (doi:10.1126/science.1257360).
